Measurements as given in PubChem BioAssay AID1476 (National Center for Advancing Translational Sciences (NCATS), 2009).
Among all 200,000 compounds or so, about 4,500 (2.2%) were called active. The shares of active, inactive and inconclusive entries below differ from those in the screen. Calls follow the shape of the dose curve; as a rule, active = well fitted inhibition curve with a large enough effect; inconclusive = small, poorly fitted or top-dose-only effect, or effect the other way; inactive = flat fitted curve, though single readings scatter. Potencies beside an inconclusive call are fits to weak or partial responses and may not hold up.

Target: Cruzipain (Trypanosoma cruzi) (UniProt P25779)
Chain of UniProt P25779 (P25779 whole entry, looked up): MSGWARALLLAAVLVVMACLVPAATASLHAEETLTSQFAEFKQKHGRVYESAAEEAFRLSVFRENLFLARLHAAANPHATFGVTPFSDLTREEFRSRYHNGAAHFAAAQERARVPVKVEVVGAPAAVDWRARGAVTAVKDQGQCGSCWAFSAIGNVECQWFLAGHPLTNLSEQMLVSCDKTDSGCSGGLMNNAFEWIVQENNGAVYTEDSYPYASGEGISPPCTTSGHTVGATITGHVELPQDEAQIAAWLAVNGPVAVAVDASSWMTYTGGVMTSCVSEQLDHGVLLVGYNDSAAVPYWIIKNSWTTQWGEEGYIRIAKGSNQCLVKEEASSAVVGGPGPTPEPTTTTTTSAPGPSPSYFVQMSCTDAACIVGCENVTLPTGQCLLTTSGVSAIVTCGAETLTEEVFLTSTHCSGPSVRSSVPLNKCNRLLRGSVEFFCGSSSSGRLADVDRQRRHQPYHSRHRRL
Assay: qHTS Assay for Promiscuous and Specific Inhibitors of Cruzain (without detergent); also: nearly all actives have a fitted effect of over 40% in size;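 as to max response, negative = inhibition: plate controls were enzyme without inhibitor for no effect and buffer without enzyme for full effect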
Conditions: purified cruzain, Z-FR-AMC fluorescence, no detergent
Method in brief: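 Purified cruzain at 1.5 nM, pre-incubated 15 min with compound at room temperature in 100 mM sodium acetate pH 5.5, 5 mM DTT, 0.00005% Triton X-100. Reaction started with 2 uM Z-FR-AMC; AMC fluorescence increase over 60 s gives rate.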
Potency is read from the fitted curve at half-maximal effect; tags tell the direction and shape of the fitted curve.

| Structure (SMILES) | Potency | max response, negative = inhibition |
| --- | --- | --- |
| CS(=O)(=O)c1ccc2nc(NC(=O)Nc3cccc(Cl)c3)sc2c1 | inconclusive: 31.6 µM [inhibitor, single point] | – |
| CC(=O)c1ccc(NC(=O)c2ccc3c(c2)N(Cc2cccc(Cl)c2)C(=O)c2ccccc2S3(=O)=O)cc1 | active: 10 µM | – |
| CCOC(=O)c1c(C)[nH]c(C)c1S(=O)(=O)N1CCC(C(=O)Nc2ccc(F)cc2F)CC1 | – | inactive: -9% |
| Cc1ccc(Cn2ccn(CC(=O)Nc3ccccc3C(F)(F)F)c(=O)c2=O)cc1 | inconclusive: 39.8 µM [activator, single point] | – |
| C/C(N=NC(=[SH+])SCc1ccccc1)=C1\C=CC=CN1.[Cl][Cu] | – | inactive: -8.23% |
| C=CCNC(=O)c1c(N)n(CCN2CCOCC2)c2nc3ccccc3nc12 | inconclusive: 31.6 µM [activator, single point] | – |
| CSc1ccc(CCNC(=O)CCc2c(C)nc3c(-c4ccccc4)c(C)nn3c2C)cc1 | inconclusive: 31.6 µM [activator, single point] | – |
| Nc1cc(Cl)c(N)c(Cl)c1 | – | inactive: -1.82% |
| CCCn1c(=N)c(C(=O)NCc2cccnc2)cc2c(=O)n3cc(C)ccc3nc21 | – | inactive: 23.1% |
| COc1cccc(/C=C/c2nc(C#N)c(N3CCCCC3)o2)c1 | inconclusive: 25.1 µM [activator, partial curve] | – |
| CCc1ccc(CSc2nc(-c3ccccc3OC)nc3c2Cc2c(CO)cnc(C)c2O3)cc1 | inconclusive: 31.6 µM [activator, single point] | – |
| COc1ccc(S(=O)(=O)NCCc2nnc3ccc(SCC(=O)Nc4ccc(C(F)(F)F)cc4)nn23)cc1 | inconclusive: 31.6 µM [activator, single point] | – |
| COc1ccccc1N1CCN(C(c2ccc(C)cc2)c2nnnn2C(C)C)CC1 (stereo unspecified) | inconclusive: 39.8 µM [activator, single point] | – |
| COc1ccc(-c2nc3ccccc3c(=O)n2CCOc2ccc(C)cc2C)cc1 | inconclusive: 25.1 µM [inhibitor, single point] | – |
| Cc1ccc(CNC(=O)CN(c2ccc(C(C)C)cc2)S(=O)(=O)c2c(C)n[nH]c2C)cc1 | inconclusive: 31.6 µM [activator, single point] | – |
| Cc1ccc2[nH]c3c(c2c1)CCC3=O | – | inactive: 11.6% |
| CCCCNC(=S)N/N=C1\CCCCc2ccccc21 | – | inactive: -19.4% |
| Cc1ccc(C)c(NC(=O)CSc2nc3ccc(N4C(=O)c5ccccc5C4=O)cc3s2)c1 | inconclusive: 31.6 µM [inhibitor, single point] | – |
| Cc1cc(C)c2c(c1)cc(C)c1nnc(SCC(=O)Nc3ccc(S(=O)(=O)N4CCCCC4)cc3)n12 | inconclusive: 25.1 µM [activator, single point] | – |
| CC(C)c1nc2cc3ccccc3cc2[nH]1 | inconclusive: 31.6 µM [inhibitor, single point] | – |
| CCOC(=O)c1cn(Cc2ccccc2)nn1 | – | inactive: -5.29% |
| COc1ccc(CNc2ccc3cc(S(=O)(=O)N4CCCCC4)ccc3n2)cc1 | inconclusive: 31.6 µM [inhibitor, single point] | – |

| Structure (SMILES) | Potency | max response, negative = inhibition |
| --- | --- | --- |
| COc1ccc(N2CC(c3nc(-c4cc(OC)c(OC)c(OC)c4)no3)CC2=O)cc1Cl (stereo unspecified) | inconclusive: 31.6 µM [activator, single point] | – |
| CCC(=O)N1CCCc2cc(S(=O)(=O)N3CCC(C(=O)Nc4ccc(F)c(F)c4)CC3)ccc21 | – | inactive: -6.97% |
| CC(=O)c1cccc(NC(=O)CCCN2C(=O)COc3ccc(C)cc32)c1 | inconclusive: 20 µM [inhibitor, single point] | – |
| O=C(NCCc1ccccc1)c1ccc2c(c1)CCN2S(=O)(=O)c1ccc(Br)cc1 | inconclusive: 39.8 µM [inhibitor, single point] | – |
| Cc1ccc(-c2cc(NC(=O)C(C)Oc3ccc(C)c(C)c3)on2)cc1 (stereo unspecified) | inconclusive: 1.58 µM [activator, single point] | – |
| Cc1[nH]c2ccccc2c1/C=N\NC(=O)Cn1nnc(-c2ccccc2)n1 | active: 7.94 µM | – |
| COc1ccc(-c2cc3nc(-c4ccccc4)cc(N4CCC5(CC4)OCCO5)n3n2)cc1 | inconclusive: 39.8 µM [inhibitor, single point] | – |
| COC(=O)c1sc2cccc(F)c2c1S(=O)(=O)N1CCN(c2ccccc2OC)CC1 | – | inactive: 6.76% |
| O=C(Nc1ccc(SC(F)F)cc1)c1cc(-c2cccs2)on1 | inconclusive: 7.94 µM [inhibitor, full curve, poor fit] | – |
| CC1CCN(C(=O)CN2CCSc3ccccc32)CC1 | – | inactive: -3.47% |
| CCOc1ccc(CC(=O)NCCc2csc(-c3ccc(C(F)(F)F)cc3)n2)cc1 | – | inactive: 0.451% |
| CC(=O)NCC(=O)OCC(=O)c1ccc(C)c(C)c1 | – | inactive: 9.11% |
| COc1ccc(Br)cc1/C=N/NC(=O)c1cc(OC)c(OC)c(OC)c1 | inconclusive: 39.8 µM [activator, single point] | – |
| COc1ccc(C2CC(c3cccs3)=NN2C(=O)CSC2=NN3CCCC(=O)N=C3S2)cc1 (stereo unspecified) | inconclusive: 39.8 µM [activator, single point] | – |
| CC(=O)Nc1sc(N/N=C\c2cccc(Cl)c2)nc1-c1cccs1 | inconclusive: 20 µM [inhibitor, single point] | – |
| COc1ccc(CNC(=O)c2ccc3c(c2)N(C)C(=O)C2CCCCN32)cc1OC (stereo unspecified) | – | inactive: -6.17% |
| CC(=O)Nc1ccc(NC(=O)C2CCN(S(=O)(=O)c3cccc4nonc34)CC2)cc1 | inconclusive: 39.8 µM [inhibitor, single point] | – |
| CCOc1ccccc1NC(=O)C(NS(=O)(=O)c1ccc2c(c1)CCC(=O)N2)c1ccccc1 (stereo unspecified) | inconclusive: 39.8 µM [activator, single point] | – |
| Cc1nn(-c2ccccc2)c(Cl)c1/C=C1\SC(=S)N(C)C1=O | – | inactive: -16.5% |
| Nc1cccc2c1C(=O)N(C(=O)c1ccc(Cl)c(S(=O)(=O)N3CCCCCC3)c1)C2=O | inconclusive: 15.8 µM [inhibitor, partial curve] | – |
| COc1ccc(-c2nc(C(N)=O)c3c(n2)n(-c2ccccc2OC)c(=O)n3C)c(OC)c1 | – | inactive: 2.51% |
| CCN(CC)C(=O)Cn1cc(SCC(=O)Nc2ccccc2F)c2ccccc21 | – | inactive: 21.6% |

| Structure (SMILES) | Potency | max response, negative = inhibition |
| --- | --- | --- |
| CCOC(=O)c1ccc2c(c1)N(CC(=O)Nc1ccc(C)cc1C)C(=O)c1ccccc1S2 | – | inactive: 8.82% |
| Cc1nn(Cc2ccc(C(=O)N3c4ccc(F)cc4CCC3C)o2)c(C)c1Br (stereo unspecified) | inconclusive: 31.6 µM [activator, single point] | – |
| Cc1cccc(N(CC(=O)NCCSCc2ccc(Cl)cc2)S(C)(=O)=O)c1C | inconclusive: 25.1 µM [activator, single point] | – |
| CN=C(Nc1ccccc1)SC1CC(=O)N(c2ccc(C(=O)OC)cc2)C1=O (stereo unspecified) | inconclusive: 39.8 µM [activator, single point] | – |
| Cc1nc(N2CCOCC2)c2nc(-c3ccccc3)n(CCN(C)C)c2n1 | – | inactive: -0.344% |
| COc1ccc(CNC(=O)Nc2cccc3ccccc23)cc1 | inconclusive: 39.8 µM [inhibitor, single point] | – |
| Cc1ccc(N(C(=O)CNC(=O)c2ccco2)C(C(=O)NCC2CCCO2)c2ccccc2)cc1 (stereo unspecified) | inconclusive: 39.8 µM [activator, single point] | – |
| CCCCCCC(=O)N(O)C1CC(=O)N(c2ccc(Br)cc2)C1=O (stereo unspecified) | active: 10 µM | – |
| COc1ccc(CCNC(=O)c2cc(Nc3cc(C)cc(C)c3)nc3ccccc23)cc1OC | inconclusive: 15.8 µM [inhibitor, single point] | – |
| CCOc1cc(CNC(=O)CCCn2c(=O)c3cccn3c3cccnc32)cc(OCC)c1OCC | inconclusive: 31.6 µM [activator, single point] | – |
| CCn1cc(C(=O)N2CCN(c3ccc(F)cc3)CC2)c(=O)c2cc(S(=O)(=O)N3CCOCC3)ccc21 | inconclusive: 39.8 µM [activator, single point] | – |
| CCn1ncc(C2=NOC(C(=O)Nc3cnn(C45CC6CC(CC(C6)C4)C5)c3)C2)c1C (stereo unspecified) | inconclusive: 31.6 µM [activator, single point] | – |
| Nc1ncnc2nc(SCCN3CCCCC3)[nH]c12 | – | inactive: 3.92% |
| CCOC(=O)c1ccccc1NC(=O)CN1C(=O)CC(c2ccco2)Sc2ccccc21 (stereo unspecified) | inconclusive: 39.8 µM [inhibitor, single point] | – |
| CCOC(=O)Cn1c(CN(Cc2ccccc2)Cc2ccccc2)nc2c1c(=O)n(C)c(=O)n2C | inconclusive: 25.1 µM [activator, partial curve] | – |
| Cc1ccc2c(c1)sc1nc(-c3cc4ccccc4oc3=O)cn12 | – | inactive: 7.31% |
| COCC(C)n1c(C)cc(C(=O)COC(=O)c2c(C)nn(-c3ccccc3)c2C)c1C (stereo unspecified) | inconclusive: 31.6 µM [activator, single point] | – |
| CCCCCC/C=C\CCCCCCCc1cccc(O)c1C(=O)O | inconclusive: 39.8 µM [activator, single point] | – |
| COCCn1nnnc1C(c1cccs1)N1CCN(c2nc3ccccc3s2)CC1 (stereo unspecified) | inconclusive: 39.8 µM [activator, single point] | – |
| N#Cc1sc2nc(-c3cccs3)cc(-c3ccc(Cl)cc3)c2c1N | active: 12.6 µM | – |
| Cc1cc(Cl)ccc1OCC(=O)Nc1nc(-c2cccs2)cs1 | inconclusive: 31.6 µM [inhibitor, single point] | – |
| O=C(CSc1ncccc1-c1nc2ccccc2[nH]1)N1CCc2ccccc21 | inconclusive: 39.8 µM [inhibitor, single point] | – |
